# About 9,900 (2.8%) of roughly 350,000 compounds were called active. Inconclusive results, whose numbers are uncertain, are shown with a selection of clear calls. Calls come from the whole dose curve; as a rule, active = well fitted activation curve with a large enough effect; inconclusive = small, poorly fitted or top-dose-only effect; inactive = no such curve, though single readings can be large or run the other way. Potencies of inconclusive entries are left out as doubtful fits.
# Test: A quantitative high throughput screen for small molecules that induce DNA re-replication in MCF 10a normal breast cells. For activity, positive = re-replication: % of control where 0% means no effect. Note: nearly all actives have a fitted effect of over 50% in size.
# Conditions: MCF 10A DNA re-replication, Hoechst nuclear intensity, 48 h; activity, positive = re-replication: at 46.1 µM (top of the series)
# Potency is the fitted concentration of half-maximal effect; tags give direction and shape of the fitted curve.
Structure (SMILES),"activity, positive = re-replication",Potency
Cc1c(NC(=O)CN(C)CC(=O)Nc2ccc(F)c(F)c2F)c(=O)n(-c2ccccc2)n1C,inactive: -0.806%,–
COc1ccc(N2CCC(CNC(=O)Nc3ccc(OC)cc3OC)C2)cc1 (stereo not given),inactive: -2.33%,–
C/C=C/c1cc(CN2CCN(c3ccccc3)CC2)c(O)c(OC)c1,–,"inconclusive [activator, single point]"
Cc1ccc(-c2cc(C(=O)N/N=C/c3ccccc3O)n[nH]2)o1,–,active: 18.4 µM
Cn1cc(/C=N\NC(=O)c2cccs2)c2ccccc21,–,"inconclusive [activator, single point]"
Cc1cccc(-n2cnc3cc(C(=O)N4CCc5ccccc54)ccc32)c1,inactive: 2.03%,–
CN(C)CCC1CCN(c2cc(C#N)c(C#N)cc2[N+](=O)[O-])CC1,–,"inconclusive [activator, partial curve, poor fit]"
CCc1ccc(CC2S/C(=C(\C#N)C(C)=O)NC2=O)cc1 (stereo not given),–,"inconclusive [activator, partial curve, poor fit]"
CCCc1cc(C(=O)N2CCCC(Cc3cccc(Cl)c3)(C(=O)OCC)C2)n(C)n1 (stereo not given),inactive: 8.72%,–
CCCCn1c(N)c(N(CC(C)C)C(=O)c2cc(S(=O)(=O)N3CCCCC3)ccc2C)c(=O)[nH]c1=O,inactive: 7.31%,–
COCCCNC(=S)NC1CCCCC1,inactive: -3.22%,–
O=C(CCS(=O)(=O)c1ccccc1)Nc1nc(-c2cccs2)cs1,–,"inconclusive [activator, single point]"
O=C1COc2ccc(-c3n[nH]c(=O)c4ccccc34)cc2N1,–,"inconclusive [activator, single point]"
Cc1ccc(C)c(N2CCN(C(=O)CCc3nc(-c4ccc(Cl)cc4)no3)CC2)c1,–,"inconclusive [activator, partial curve, poor fit]"
O=C(CN(c1ccccc1)S(=O)(=O)c1ccccc1[N+](=O)[O-])NN=C1CCCCCCC1,–,"inconclusive [activator, single point]"
CCc1ccc(S(=O)(=O)NCc2cn3ccccc3n2)s1,inactive: 18.4%,–
COc1cccc(/C=N/Nc2ccc([N+](=O)[O-])cn2)c1O,–,"inconclusive [activator, full curve, poor fit]"
Cc1ccc(O)c(NC(=S)NC(=O)COc2ccc(Br)cc2)c1,–,active: 20.6 µM
Cc1cc2cc(CN(CC3CCCO3)C(=S)NCc3ccco3)c(=O)[nH]c2cc1C (stereo not given),–,"inconclusive [activator, partial curve, poor fit]"
COc1ccc(NC(=O)CNC(=O)c2nn(-c3ccc(OC)c(Cl)c3)c(=O)c3ccccc23)c(OC)c1,inactive: 1.32%,–
COc1cc(C(=O)CCN2CCC(c3ccccc3)C2)cc(OC)c1OC (stereo not given),–,active: 3.66 µM
Cc1ccc(S(=O)(=O)N2CCCCC2)cc1NC(=O)CSc1nnc(N)s1,–,active: 0.58 µM
Cc1ccc(NC(=S)N2CCN(C3CCCCC3)CC2)cc1,inactive: -5.19%,–

Structure (SMILES),"activity, positive = re-replication",Potency
CCCCOc1ccc(NC(=O)[C@@H]2CCCN2C(=O)C2CCN(S(=O)(=O)c3ccc(C)cc3)CC2)cc1,inconclusive: 25.9% [activator],–
Cc1ccc([N+](=O)[O-])c(OCc2ncc(Cl)n2C)c1,–,"inconclusive [activator, single point]"
CN1CN=C(NS(=O)(=O)c2ccc([N+](=O)[O-])cc2)NC1,–,"inconclusive [activator, partial curve, poor fit]"
C/C(=N\NC(=O)Cn1nc(C)c(Br)c1C)c1cccs1,inactive: -0.847%,–
CC1CCC(NC(=O)c2ccc(S(C)(=O)=O)cc2)CC1 (stereo not given),inactive: -1.1%,–
O=C(CCc1nc(-c2ccc(Cl)cc2)no1)NC1CCCCC1,–,"inconclusive [activator, partial curve, poor fit]"
Cc1cccc2nc(-c3ccccc3)nc(N[C@@H](CO)c3ccccc3)c12,–,"inconclusive [activator, single point]"
Cn1c(SCC(=O)Nc2ccccc2Cl)nnc1C1CC1,–,"inconclusive [activator, partial curve, poor fit]"
COc1cc(OC)cc(-c2nnc(NC(=O)CCS(=O)(=O)c3ccc(F)cc3)o2)c1,–,"inconclusive [activator, single point]"
O=C(Nc1nnc(-c2ccncc2)o1)c1ccc(Br)s1,–,"inconclusive [activator, partial curve, poor fit]"
COc1ccc2c(c1)[nH]c1c(=O)n(/N=C/c3ccc(OC)c(CN4CCCC4)c3)cnc12,inactive: 0.875%,–
COc1ccc(N2CCN(C3CCCN(Cc4cccc(C(C)=O)c4)C3)CC2)cc1 (stereo not given),–,active: 23.1 µM
CCC1CCc2c(sc(NC(=O)c3cccnc3)c2C(N)=O)C1 (stereo not given),–,"inconclusive [activator, partial curve, poor fit]"
Cc1noc(C)c1CSCC(=O)Nc1cc(S(=O)(=O)N2CCOCC2)ccc1OCC(F)(F)F,inactive: 0.425%,–
CCCCOC(=O)Nc1nnc(CC(=O)NCc2ccccc2)s1,–,"inconclusive [activator, partial curve, poor fit]"
Cc1cc(Cl)c(O)c(-n2nc3ccccc3n2)c1,inactive: 2.11%,–
c1ccc(CN2CCN(CCOCCOc3cccc4ccccc34)CC2)cc1,–,"inconclusive [activator, single point]"
CC(/C=C1\SC(=S)N(NC(=O)c2ccc(O)cc2)C1=O)=C\c1ccccc1,–,"inconclusive [activator, single point]"
CCCN1C(=O)/C(=C/c2cc(C)n(C)c2C)SC1=Nc1ccc(OCC)cc1,–,"inconclusive [activator, partial curve]"
CC(C)C[C@H](NC(=O)c1nc[nH]c1C(=O)N1CCN(C(=O)OC(C)(C)C)CC1)C(=O)OCc1ccccc1,–,"inconclusive [activator, single point]"
CC(=O)C1=C(S(=O)(=O)c2ccc(C)cc2)CS(=O)(=O)C1,–,active: 14.6 µM
Cc1ccc(-c2nn(-c3ccccc3Cl)cc2C(=O)NCC2CCCO2)cc1 (stereo not given),–,"inconclusive [activator, partial curve, poor fit]"
